Results: PMC4702128
Results are given in words; binding and its absence hold for the method and conditions named. In cells and extracts the contact can be indirect. Some results given as binding are weak or reduced against the parent protein; the word gives no strength. Where a sequence is shown, tags or fusion partners need not be part of it.

T1: FLAG-tagged MCAK (human (cDNA library from HEK 293T cells)) (UniProt Q99661)
T1 sequence: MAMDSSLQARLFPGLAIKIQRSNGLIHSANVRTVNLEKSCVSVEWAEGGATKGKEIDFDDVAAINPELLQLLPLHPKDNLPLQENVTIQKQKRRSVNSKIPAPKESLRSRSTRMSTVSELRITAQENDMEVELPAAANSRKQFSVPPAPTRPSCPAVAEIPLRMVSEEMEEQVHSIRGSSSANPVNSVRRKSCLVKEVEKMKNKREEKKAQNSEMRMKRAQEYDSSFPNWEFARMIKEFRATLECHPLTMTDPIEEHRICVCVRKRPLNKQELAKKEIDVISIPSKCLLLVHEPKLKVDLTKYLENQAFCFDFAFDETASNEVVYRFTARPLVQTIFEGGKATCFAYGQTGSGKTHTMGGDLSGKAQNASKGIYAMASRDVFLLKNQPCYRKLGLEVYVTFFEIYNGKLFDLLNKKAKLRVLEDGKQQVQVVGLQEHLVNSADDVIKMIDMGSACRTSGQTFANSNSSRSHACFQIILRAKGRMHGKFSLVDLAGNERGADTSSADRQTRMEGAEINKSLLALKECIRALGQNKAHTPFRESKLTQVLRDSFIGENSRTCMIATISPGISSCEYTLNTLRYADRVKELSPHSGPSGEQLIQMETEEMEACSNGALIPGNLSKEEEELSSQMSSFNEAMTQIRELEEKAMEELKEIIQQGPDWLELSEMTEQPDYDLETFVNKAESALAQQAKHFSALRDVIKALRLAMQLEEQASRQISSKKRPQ

T2: MCAK, HA- or FLAG-tagged, as used in the mapping co-immunoprecipitation of Figure 2B (human (cDNA library from HEK 293T cells)) (UniProt Q99661)
T2 sequence: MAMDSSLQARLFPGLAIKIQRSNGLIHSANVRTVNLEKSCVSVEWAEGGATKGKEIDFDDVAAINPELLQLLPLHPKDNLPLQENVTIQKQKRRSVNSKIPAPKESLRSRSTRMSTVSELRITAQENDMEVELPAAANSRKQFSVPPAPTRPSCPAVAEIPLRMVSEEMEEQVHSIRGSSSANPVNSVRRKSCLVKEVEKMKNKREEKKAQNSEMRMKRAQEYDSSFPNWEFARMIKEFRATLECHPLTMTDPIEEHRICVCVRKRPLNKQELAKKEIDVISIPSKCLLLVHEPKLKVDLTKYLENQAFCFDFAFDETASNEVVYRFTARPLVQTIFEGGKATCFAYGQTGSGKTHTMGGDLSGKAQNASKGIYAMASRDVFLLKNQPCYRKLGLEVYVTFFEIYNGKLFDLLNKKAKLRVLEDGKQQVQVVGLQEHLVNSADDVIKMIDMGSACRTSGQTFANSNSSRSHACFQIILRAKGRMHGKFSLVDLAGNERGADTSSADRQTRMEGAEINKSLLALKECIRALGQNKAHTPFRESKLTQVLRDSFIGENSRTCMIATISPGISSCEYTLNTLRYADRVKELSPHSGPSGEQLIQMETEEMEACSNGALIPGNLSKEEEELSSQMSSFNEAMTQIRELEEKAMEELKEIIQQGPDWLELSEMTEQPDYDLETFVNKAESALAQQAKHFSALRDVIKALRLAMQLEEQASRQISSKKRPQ

T3: FLAG-tagged NuSAP (nucleolar and spindle-associated protein) (human (cDNA library from HEK 293T cells)) (UniProt Q9BXS6)
T3 sequence: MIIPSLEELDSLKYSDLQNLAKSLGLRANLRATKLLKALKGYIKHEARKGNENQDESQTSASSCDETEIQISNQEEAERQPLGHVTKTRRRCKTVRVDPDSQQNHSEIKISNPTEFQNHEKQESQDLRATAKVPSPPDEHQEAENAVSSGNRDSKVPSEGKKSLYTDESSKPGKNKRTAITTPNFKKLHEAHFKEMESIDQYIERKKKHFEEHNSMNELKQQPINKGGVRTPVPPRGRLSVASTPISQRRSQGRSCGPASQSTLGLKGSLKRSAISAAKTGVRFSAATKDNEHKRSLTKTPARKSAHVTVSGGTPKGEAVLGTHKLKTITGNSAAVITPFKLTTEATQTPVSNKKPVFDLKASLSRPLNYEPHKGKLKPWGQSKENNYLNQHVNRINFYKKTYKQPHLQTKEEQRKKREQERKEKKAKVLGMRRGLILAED


Columns and labels:
[1] = biological target: T1, FLAG-tagged MCAK (human (cDNA library from HEK 293T cells)); experiment: co-IP; FLAG M2 beads with lysates of transfected HEK 293T cells (M-PER, nocodazole 10 μg/ml), 1 h, 4 °C; western blot; in Figure 4A with or without co-expressed Aurora B
[2] = biological target: T1, FLAG-tagged MCAK (human (cDNA library from HEK 293T cells)); experiment: co-IP; as a2, FLAG-MCAK and HA-NuSAP, cells treated with 2 μM ZM447439 (Aurora B inhibitor) for 45 min
[3] = biological target: T2, MCAK, HA- or FLAG-tagged, as used in the mapping co-immunoprecipitation of Figure 2B (human (cDNA library from HEK 293T cells)); experiment: co-IP; FLAG M2 beads with lysates of transfected HEK 293T cells (M-PER, nocodazole 10 μg/ml), 1 h, 4 °C; western blot; in Figure 4A with or without co-expressed Aurora B
[4] = biological target: T3, FLAG-tagged NuSAP (nucleolar and spindle-associated protein) (human (cDNA library from HEK 293T cells)); experiment: as above

binding [4] | Binder | also measured
– | HA-tagged NuSAP (protein, UniProt Q9BXS6 1-441) MIIPSLEELDSLKYSDLQNLAKSLGLRANLRATKLLKALKGYIKHEARKGNENQDESQTSASSCDETEIQISNQEEAERQPLGHVTKTRRRCKTVRVDPDSQQNHSEIKISNPTEFQNHEKQESQDLRATAKVPSPPDEHQEAENAVSSGNRDSKVPSEGKKSLYTDESSKPGKNKRTAITTPNFKKLHEAHFKEMESIDQYIERKKKHFEEHNSMNELKQQPINKGGVRTPVPPRGRLSVASTPISQRRSQGRSCGPASQSTLGLKGSLKRSAISAAKTGVRFSAATKDNEHKRSLTKTPARKSAHVTVSGGTPKGEAVLGTHKLKTITGNSAAVITPFKLTTEATQTPVSNKKPVFDLKASLSRPLNYEPHKGKLKPWGQSKENNYLNQHVNRINFYKKTYKQPHLQTKEEQRKKREQERKEKKAKVLGMRRGLILAED | binding [1]: binds; binding [2]: no binding (condition: with 2 μM ZM447439 for 45 min)
– | NuSAP^delMCBD (NuSAP with amino acids 433-441 deleted from the C-terminus) (domain or fragment, UniProt Q9BXS6 1-432) MIIPSLEELDSLKYSDLQNLAKSLGLRANLRATKLLKALKGYIKHEARKGNENQDESQTSASSCDETEIQISNQEEAERQPLGHVTKTRRRCKTVRVDPDSQQNHSEIKISNPTEFQNHEKQESQDLRATAKVPSPPDEHQEAENAVSSGNRDSKVPSEGKKSLYTDESSKPGKNKRTAITTPNFKKLHEAHFKEMESIDQYIERKKKHFEEHNSMNELKQQPINKGGVRTPVPPRGRLSVASTPISQRRSQGRSCGPASQSTLGLKGSLKRSAISAAKTGVRFSAATKDNEHKRSLTKTPARKSAHVTVSGGTPKGEAVLGTHKLKTITGNSAAVITPFKLTTEATQTPVSNKKPVFDLKASLSRPLNYEPHKGKLKPWGQSKENNYLNQHVNRINFYKKTYKQPHLQTKEEQRKKREQERKEKKAKVLGM | binding [3]: no binding
binds | GFP-MCAK-His (protein, UniProt P70096 1-718) MESLPARLFPGLSIKIQRSNGLIHSANISTVNVEKSCVSVEWIEGGNTKGKEIDFDDVAAINPELLQLLPLHPKDNLPLQENVTVPKQKRRSVNSKIPAPKEGLRSRSTRMSTVPEVRIATQENEMEVELPVATNSRKQFSVATGLPRPSCPAMTELPLSMVSEEAEEQVHPTRSTSSANPARRKSCIVKEMEKMKNKREEKRAQNSEIRIKRAQEYDSSFPNWEFARMIKEFRVTIECHPLTLTDPTEEHRICVCVRKRPLNKQELAKKEIDVISVPSKCLLFVHEPKLKVDLTKYLENQAFCFDFAFDETASNEVVYRFTARPLVQTIFEGGKATCFAYGQTGSGKTHTMGGDLSGKSQNTSKGIYAMASRDVFLLKSQPRYRNLNLEVYVTFFEIYNGKVFDLLNKKAKLRVLEDSKQQVQVVGLQEYLVNCADDVIKMLNMGSACRTSGQTFANSNSSRSHACFQILLRAKGRLHGKFSLVDLAGNERGADTSSADRQTRMEGAEINKSLLALKECIRALGQNKAHTPFRESKLTQVLRDSFIGENSRTCMIAMISPGISSCEYTLNTLRYADRVKELSPHSGLSGEQPIQMETEEMEASSNGTSLAVNFKEEEELSSQMSSFNEAMSQIRELEERAMEELREIIQQGPGWLELSEMTDQPDYDLETFVNKAESALTQQTKHFSALREVIKALRVAMQLEEQASKQMNSKKRHQ | –
binds | GFP-MCAK 5E-His (phospho-mimicking MCAK 5E) (protein, UniProt P70096 1-718) MESLPARLFPGLSIKIQRSNGLIHSANISTVNVEKSCVSVEWIEGGNTKGKEIDFDDVAAINPELLQLLPLHPKDNLPLQENVTVPKQKRREVNSKIPAPKEGLRERETRMETVPEVRIATQENEMEVELPVATNSRKQFSVATGLPRPSCPAMTELPLSMVSEEAEEQVHPTRSTSSANPARRKECIVKEMEKMKNKREEKRAQNSEIRIKRAQEYDSSFPNWEFARMIKEFRVTIECHPLTLTDPTEEHRICVCVRKRPLNKQELAKKEIDVISVPSKCLLFVHEPKLKVDLTKYLENQAFCFDFAFDETASNEVVYRFTARPLVQTIFEGGKATCFAYGQTGSGKTHTMGGDLSGKSQNTSKGIYAMASRDVFLLKSQPRYRNLNLEVYVTFFEIYNGKVFDLLNKKAKLRVLEDSKQQVQVVGLQEYLVNCADDVIKMLNMGSACRTSGQTFANSNSSRSHACFQILLRAKGRLHGKFSLVDLAGNERGADTSSADRQTRMEGAEINKSLLALKECIRALGQNKAHTPFRESKLTQVLRDSFIGENSRTCMIAMISPGISSCEYTLNTLRYADRVKELSPHSGLSGEQPIQMETEEMEASSNGTSLAVNFKEEEELSSQMSSFNEAMSQIRELEERAMEELREIIQQGPGWLELSEMTDQPDYDLETFVNKAESALTQQTKHFSALREVIKALRVAMQLEEQASKQMNSKKRHQ | –
binds | GFP-MCAK 5A-His (phospho-deficient MCAK 5A) (protein, UniProt P70096 1-718) MESLPARLFPGLSIKIQRSNGLIHSANISTVNVEKSCVSVEWIEGGNTKGKEIDFDDVAAINPELLQLLPLHPKDNLPLQENVTVPKQKRRAVNSKIPAPKEGLRARATRMATVPEVRIATQENEMEVELPVATNSRKQFSVATGLPRPSCPAMTELPLSMVSEEAEEQVHPTRSTSSANPARRKACIVKEMEKMKNKREEKRAQNSEIRIKRAQEYDSSFPNWEFARMIKEFRVTIECHPLTLTDPTEEHRICVCVRKRPLNKQELAKKEIDVISVPSKCLLFVHEPKLKVDLTKYLENQAFCFDFAFDETASNEVVYRFTARPLVQTIFEGGKATCFAYGQTGSGKTHTMGGDLSGKSQNTSKGIYAMASRDVFLLKSQPRYRNLNLEVYVTFFEIYNGKVFDLLNKKAKLRVLEDSKQQVQVVGLQEYLVNCADDVIKMLNMGSACRTSGQTFANSNSSRSHACFQILLRAKGRLHGKFSLVDLAGNERGADTSSADRQTRMEGAEINKSLLALKECIRALGQNKAHTPFRESKLTQVLRDSFIGENSRTCMIAMISPGISSCEYTLNTLRYADRVKELSPHSGLSGEQPIQMETEEMEASSNGTSLAVNFKEEEELSSQMSSFNEAMSQIRELEERAMEELREIIQQGPGWLELSEMTDQPDYDLETFVNKAESALTQQTKHFSALREVIKALRVAMQLEEQASKQMNSKKRHQ | –
